From the supplement of paper PMC9446081
About 220 (0.56%) of roughly 39,000 compounds showed activity. Some of the results follow.
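Note: static incubation at 37 °C against the wild-type strain, values averaged over two biological replicates.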

Each molecule was assayed on Escherichia coli K-12 BW25113 (assay: relative growth (OD600 normalised to plate interquartile mean) (fraction); higher = less growth inhibition, active = 0.2 or less). Settings: 50 µM; LB; incubation time: overnight (16-24 h).
With `O=C(C[C@@H]1C[C@@H]2c3cc(NS(=O)(=O)c4ccc(F)cc4)ccc3O[C@@H]2[C@H](CO)O1)NC1CCCCC1` the relative growth was inactive: 0.961. For `COc1ccccc1-c1ccc2c(c1)O[C@@H](CN(C)C(=O)c1ccncc1)[C@@H](C)CN([C@@H](C)CO)S2(=O)=O`, the relative growth was inactive: 0.993. For `C[C@@H]1CN([C@@H](C)CO)C(=O)Cc2cc(NC(=O)Nc3cccc4ccccc34)ccc2O[C@H]1CN(C)Cc1ccc(Oc2ccccc2)cc1`, the relative growth was inactive: 1.02. `COc1cc(C=Cc2ccc(O)cc2)cc(OC)c1` was tested, and the relative growth was inactive: 0.796. For `COc1ccc(NC(=O)Nc2ccc3c(c2)C(=O)N([C@H](C)CO)C[C@@H](C)[C@H](CN(C)S(=O)(=O)c2cccs2)OCCCC[C@@H](C)O3)cc1`, the relative growth was inactive: 1.04. With `C[C@H]1CN([C@@H](C)CO)S(=O)(=O)c2ccc(C#Cc3ccccc3)cc2O[C@@H]1CN(C)C(=O)CN(C)C` the relative growth was inactive: 0.955. With `C[C@@H]1CN([C@H](C)CO)C(=O)c2c(c3ccccc3n2C)-c2ccccc2CO[C@H]1CN(C)S(=O)(=O)c1ccc(C(F)(F)F)cc1` the relative growth was inactive: 1.03. In the case of `C[C@@H]1CN([C@@H](C)CO)C(=O)c2cccc(NC(=O)c3ccc(-c4nccs4)cc3)c2O[C@H]1CN(C)C(=O)Nc1cccc2ccccc12`, the relative growth is reported as inactive: 0.886. `C[C@@H]1CCCCO[C@@H](CN(C)CC2CCCCC2)[C@H](C)CN([C@H](C)CO)C(=O)c2cc(NC(=O)Nc3ccccc3)ccc2O1` was tested, and the relative growth was inactive: 0.798. For `CC(C)NC(=O)Nc1ccc2c(c1)C(=O)N([C@@H](C)CO)C[C@@H](C)[C@@H](CN(C)Cc1ccc3c(c1)OCO3)O2`, the relative growth was inactive: 0.999. `C[C@H](CO)N1C[C@H](C)[C@H](CN(C)S(=O)(=O)c2ccc(Cl)cc2)OCCCC[C@H](C)Oc2ccc(NC(=O)Cc3ccccc3)cc2C1=O` was tested, and the relative growth was inactive: 1.01. For `COc1ccc(S(=O)(=O)N(C)C[C@@H]2OCCCC[C@@H](C)Oc3ccc(NC(=O)C4CCCCC4)cc3C(=O)N([C@H](C)CO)C[C@@H]2C)cc1`, the relative growth was inactive: 1. In the case of `C[C@@H]1CN([C@H](C)CO)C(=O)Cc2cc(NS(=O)(=O)c3ccc(Cl)cc3)ccc2O[C@H]1CN(C)C`, the relative growth is reported as inactive: 0.992. `C[C@@H]1CN([C@@H](C)CO)C(=O)c2cc(-c3cccc(C(=O)N(C)C)c3)cnc2O[C@@H]1CN(C)S(=O)(=O)c1ccccc1` was tested, and the relative growth was inactive: 1.01. With `C[C@H](CO)N1C[C@H](C)[C@@H](CN(C)C(=O)CN(C)C)Oc2cc(-c3ccc(C#N)cc3)ccc2S1(=O)=O` the relative growth was inactive: 1.01. `Cn1nnnc1SCC1=C(C(=O)[O-])N2C(=O)C(NC(=O)C(OC=O)c3ccccc3)C2SC1.[Na+]` (stereo unspecified) was tested, and the relative growth was inactive: 0.365.
